# Test results taken from publication PMC4336329 (PLoS ONE, 2015).
# Screen size: about 310,000 compounds; about 2,200 (0.71%) showed an effect of 50% or more. The effect is printed as a negative number. This is one part of the list.
# Molecular target: human ether-à-go-go-related gene (hERG) potassium channel (human, UniProt Q12809)
# Test: primary screen, population patch clamp on CHO cells stably expressing hERG
# Sequence of human ether-à-go-go-related gene (hERG) potassium channel (Q12809 whole entry, looked up): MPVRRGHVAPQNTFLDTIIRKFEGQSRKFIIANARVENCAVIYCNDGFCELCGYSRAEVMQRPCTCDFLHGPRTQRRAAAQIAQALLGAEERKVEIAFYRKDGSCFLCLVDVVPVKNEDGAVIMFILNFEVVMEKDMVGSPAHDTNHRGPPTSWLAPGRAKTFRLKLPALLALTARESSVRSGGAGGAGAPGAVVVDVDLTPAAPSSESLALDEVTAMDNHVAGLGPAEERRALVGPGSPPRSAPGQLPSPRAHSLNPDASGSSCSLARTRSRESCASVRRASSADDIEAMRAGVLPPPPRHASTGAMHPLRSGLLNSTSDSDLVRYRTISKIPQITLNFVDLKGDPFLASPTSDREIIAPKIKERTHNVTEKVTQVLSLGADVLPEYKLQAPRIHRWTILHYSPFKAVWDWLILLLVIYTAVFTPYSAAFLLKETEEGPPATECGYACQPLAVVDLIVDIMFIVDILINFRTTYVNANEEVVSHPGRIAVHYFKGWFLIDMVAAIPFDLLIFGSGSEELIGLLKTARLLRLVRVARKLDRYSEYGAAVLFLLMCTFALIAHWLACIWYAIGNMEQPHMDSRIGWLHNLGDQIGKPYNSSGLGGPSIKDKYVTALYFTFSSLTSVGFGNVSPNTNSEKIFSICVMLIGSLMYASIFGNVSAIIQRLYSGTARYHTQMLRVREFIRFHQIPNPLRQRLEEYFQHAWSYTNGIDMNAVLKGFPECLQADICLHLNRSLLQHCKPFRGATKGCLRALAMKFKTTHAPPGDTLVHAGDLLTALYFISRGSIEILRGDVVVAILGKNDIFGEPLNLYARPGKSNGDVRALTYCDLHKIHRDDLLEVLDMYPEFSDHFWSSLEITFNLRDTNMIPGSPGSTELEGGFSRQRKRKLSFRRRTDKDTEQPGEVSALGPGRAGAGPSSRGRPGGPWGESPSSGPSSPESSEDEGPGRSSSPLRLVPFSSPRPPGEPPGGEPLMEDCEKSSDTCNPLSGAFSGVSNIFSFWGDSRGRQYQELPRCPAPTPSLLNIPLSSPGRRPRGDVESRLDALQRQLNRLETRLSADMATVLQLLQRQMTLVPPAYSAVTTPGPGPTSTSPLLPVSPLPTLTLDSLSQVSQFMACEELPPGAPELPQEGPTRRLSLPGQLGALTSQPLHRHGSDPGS
row,Compound,"hERG current change (%, negative = inhibition) at 1uM [%]"
1,Nc1ccccc1SC1CC(=O)N(Cc2ccccc2)C1=O (stereo not drawn),10.3
2,Cc1csc(SCCn2c(N3CCN(c4ccccc4)CC3)nc3c2c(=O)[nH]c(=O)n3C)n1,12.5
3,CN(C)CCNC(=O)c1cc(Br)ccc1Cl,9.94
4,Cc1ccc(NC(=O)CSCC(=O)Nc2ccccc2N2CCCCC2)cc1,1.36
5,O=C(NCCCO)/C(=C\c1ccco1)NC(=O)c1ccc(Br)o1,3.05
6,COc1ccc(C(=O)c2oc3ccccc3c2N)cc1,14.3
7,O=C(CSc1nc2ccccc2o1)c1ccccc1,6.81
8,CNC(=S)N(Cc1cc2cc(C)ccc2n2nnnc12)CC(C)(C)CN(C)C,15.1
9,O=C(NC1CCSC1=O)C1CCCCC1 (stereo not drawn),9.13
10,CNC(=O)N(O)C1N(NC(=O)Nc2ccccc2)C(=S)SC1(C)C (stereo not drawn),12.4
11,COC(=O)c1ccc(OCC(=O)NC(C)(C)C)cc1,5.73
12,COc1cccc(/C=N/NC(=O)c2[nH]c(C)c(C(=O)N/N=C/c3cccc(OC)c3)c2C)c1,12.6
13,CCOC(=O)N1CCC(N2C(=O)c3ccc(C(=O)Nc4ccc(F)cc4F)cc3C2=O)CC1,7.13
14,COc1cc(C(C)=O)ccc1OC(C)C(=O)Nc1ccc(S(=O)(=O)N2CCCC2)cc1 (stereo not drawn),10.2
15,COc1ccc(NC(=O)NCCC2=CCCCC2)cc1,8.08
16,Cc1ccc(/C=N/NC(=O)Cc2c(F)cccc2Cl)s1,4.6
17,Cc1ccc(C(=O)N/C(=C\c2cccs2)C(=O)NCC2CCCO2)cc1C (stereo not drawn),7.99
18,Fc1cccc(NC(=S)NC2CCCCCCC2)c1,18.9
19,Cc1cccc(-n2c(O)c(/C=N/N3CCOCC3)c(=O)[nH]c2=S)c1,-1.45

row,Compound,"hERG current change (%, negative = inhibition) at 1uM [%]"
1,O=C(O)/C=C\C(=O)Nc1ccc(N2CCN(c3cccc(Cl)c3)CC2)cc1,9.88
2,COc1ccccc1Cn1c(=S)[nH]c2cc(C(=O)N3CCC(C(N)=O)CC3)ccc2c1=O,17.1
3,Cc1cc(F)c(F)c(C(=O)N2CCN(C)CC2)c1Cl,17.8
4,CCCn1c(SCC(=O)Nc2ccccc2-c2ccccc2)nnc1-c1ccoc1C,5.18
5,O=C(c1cnn(C(=O)c2ccccc2)c1)c1ccccc1O,9.27
6,O=C(c1ccc(-c2ccc(Cl)cc2)o1)N1CCN(S(=O)(=O)c2cccs2)CC1,7.65
7,S=C(Nc1ccc(-c2nc3ccccc3[nH]2)cc1)Nc1cccnc1,-17.2
8,O=C(Nc1ccon1)c1cccc(C(F)(F)F)c1,13
9,O=C(NCC(=O)N(c1ccccc1F)C(C(=O)NC1CCCC1)c1ccncc1)c1ccco1 (stereo not drawn),9.08
10,O=C(NCc1ccccc1)c1onc(CSc2ccc(F)c(F)c2)c1C(=O)NCc1ccccc1,8.58
11,CCOC(=O)C1CCN(Cc2ccc(OCc3ccccc3)cc2)CC1.O=C(O)C(=O)O,-24.2
12,Cc1ccc(NC(=O)C2=C(O)c3ccccc3N(C)S2(=O)=O)cc1,14.1
13,Nc1nc(-c2ccc3c(c2)CCC(=O)N3)cs1,15.7
14,CC1CCCC(NC(=O)C2CCN(S(=O)(=O)N3CCC4(CC3)OCCO4)CC2)C1C (stereo not drawn),1.82
15,COc1cc(CNC(C)C)ccc1OCC(=O)Nc1cccc2ccccc12,10.2
16,Cc1ccc(-c2nnc(Nc3ccc4c(c3)OCO4)c3ccccc23)cc1S(N)(=O)=O,5.71
17,Cc1nnc(SCC(=O)NCCOc2ccc(Cl)cc2)n1-c1ccccc1,-9.59
18,CCN1C(=O)C2(/C(=C(\O)c3ccc4c(c3)OCCO4)C(=O)C(=O)N2CCCOC)c2ccccc21 (stereo not drawn),19.6
19,CCOc1ccc(CCNC(=O)COC(=O)c2cc(=O)[nH]c3ccccc23)cc1OCC,21.2

row,Compound,"hERG current change (%, negative = inhibition) at 1uM [%]"
1,COc1ccc(Nc2nnc(SCC(=O)c3cc4ccccc4o3)s2)cc1,10.9
2,Cc1nc(CNS(=O)(=O)c2ccc3c(c2)CCCC3)cs1,11.1
3,Cc1ccc2oc(=O)n(CC(=O)O)c2c1,16.2
4,O=C(O)C1Nc2c(O)cccc2C2C=CCC12 (stereo not drawn),9.09
5,CCCc1cc(=O)oc2cc(OCC(=O)NCCCn3ccnc3)ccc12,-9.74
6,CCS(=O)(=O)NCc1nnc2n1-c1ccc(Cl)cc1C(c1ccccc1)=NC2,9.43
7,CCCn1nc(C(=O)Nc2ccc3c(c2)OCCO3)c2ccccc2c1=O,8.24
8,CCOC(=O)c1cc(C)[nH]c1C,6.28
9,CS(=O)c1ccccc1COC(=O)Nc1ccc(Cl)cc1 (stereo not drawn),-3.41
10,COc1ccc(/C=N/NC(=O)c2cc(C34CC5CC(CC(C5)C3)C4)[nH]n2)cc1O,4.54
11,COc1cccc(NC(=O)c2ccc(OC(F)(F)F)cc2)c1,5.93
12,CCOc1ccc(C2C=C(c3ccccc3)Nc3nnnn32)cc1 (stereo not drawn),10.4
13,Cc1ccc2[nH]cc(CCNC(=O)Nc3ccccc3)c2c1,1.54
14,C=CCOC(=O)C1=C(C)NC(=O)NC1c1ccc(N(C)C)cc1 (stereo not drawn),7.84
15,CC(C)CN(C(=O)CSc1nnc(-c2ccco2)o1)c1c(N)n(Cc2ccccc2)c(=O)[nH]c1=O,19.2
16,CC1=Nc2ccccc2/C1=C/c1nc(-c2ccc(C)s2)oc1O,13.8
17,CCOc1ccc2nc(Cl)c(CN(C(=O)c3cnccn3)C3CCCC3)cc2c1,12.1
18,Fc1ccccc1CN1CCN(c2ncccn2)CC1,10.5
19,NC(=S)NNc1ccnc2cc(Cl)ccc12,3.17
